{"source": "PubChem BioAssay AID1466", "about": "(National Center for Advancing Translational Sciences (NCATS), 2008)", "note": "Among all 200,000 compounds or so, about 10 (0.005%) were called active. Inconclusive means that the source gave no clear call. Such entries were picked first, then a sample of the others. The call rests on the fitted dose curve; in most records, active means well fitted inhibition curve with a large enough effect; inconclusive means small, poorly fitted or top-dose-only effect, or effect the other way, or another doubt; inactive means no such curve, though single readings can be large or run the other way. Potencies of inconclusive entries are left out as doubtful fits. Potency means the concentration at half of the fitted maximal effect; tags describe the fitted curve by direction and shape.", "data": [{"molecular_target": "Lysosomal alpha-glucosidase (Homo sapiens) (UniProt P10253)", "test": "qHTS Assay for Inhibitors of Human alpha-Glucosidase as a Potential Chaperone Treatment of Pompe Disease;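 on activity change, negative = inhibition: plate controls were uninhibited enzyme wells for no effect and no-enzyme background for full effect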", "conditions": "purified human GAA, 4-MU-alpha-glucoside fluorescence; activity change, negative = inhibition: at 76.9 µM (top of the series) unless noted", "method_in_brief": "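Enzyme (4 nM final) mixed with compound (up to 77 uM), then 4-MU-alpha-D-pyranoside (400 uM final) added; 20 min at room temperature, pH 5.0. Reaction stopped at pH 10, fluorescence read, AC50 derived by Hill fit.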", "values": [{"smiles": "COCCCNC(=O)CCC(=O)Nc1ccc2nc(N3CCOCC3)cc(C)c2c1", "Potency": "inconclusive [activator, partial curve]"}, {"smiles": "COc1cccc(CN(C)c2nc(-c3cccs3)nc3ccccc23)c1", "activity change, negative = inhibition": "inactive: -12.1%"}, {"smiles": "CCC1(C)CC(CCNS(=O)(=O)c2ccc(C)cc2)(c2ccc(C)cc2)CCO1", "note": "(stereo not drawn)", "activity change, negative = inhibition": "inconclusive: -15.1% [inhibitor]"}, {"smiles": "CCOC(=O)c1nn(-c2ccc(Cl)cc2)c2nc(-c3ccc(C)cc3)c(C#N)c(=O)n12", "Potency": "inconclusive [activator, single point]"}, {"smiles": "CN(c1ccccc1)S(=O)(=O)c1ccc(Cl)c(C(=O)Nc2ccc(N3CCOCC3)cc2)c1", "Potency": "inconclusive [inhibitor, single point]"}, {"smiles": "COC(=O)CNc1nc(OC)nc(N(C)C)n1", "Potency": "inconclusive [inhibitor, single point]"}, {"smiles": "O=C(NCC1CCCO1)C(c1cccs1)N(Cc1cccs1)C(=O)Cn1nnc(-c2cccs2)n1", "note": "(stereo not drawn)", "Potency": "inconclusive [inhibitor, partial curve]"}, {"smiles": "CCCC(=O)Nc1cccc(-c2cn3cccnc3n2)c1", "Potency": "inconclusive [activator, partial curve]"}, {"smiles": "CCOC(=O)c1cnc(-n2[nH]c(C)c(Cc3ccccc3)c2=O)[nH]c1=O", "activity change, negative = inhibition": "inconclusive: -16% [inhibitor]"}, {"smiles": "Cc1c([N+](=O)[O-])cc(C(=O)Nc2ccc(Cc3ccncc3)cc2)cc1[N+](=O)[O-]", "activity change, negative = inhibition": "inactive: -7.25%"}, {"smiles": "COc1ccccc1/C=N/N(C(C)=O)c1nc(-c2ccc(F)cc2)cs1", "Potency": "inconclusive [inhibitor, full curve]"}, {"smiles": "CC(=O)Nc1nc(C)c(-c2csc(Nc3ccc(O)cc3)n2)s1", "activity change, negative = inhibition": "inactive: 0.1%"}, {"smiles": "N#Cc1nc(COc2ccc(F)cc2)oc1N1CCN(Cc2ccccc2)CC1", "activity change, negative = inhibition": "inconclusive: -16.1% [inhibitor]"}, {"smiles": "COc1ccc(C(=O)Nc2cc(C(=O)O)cc(C(=O)O)c2)cc1Cl", "activity change, negative = inhibition": "inconclusive: 14.1% [activator]"}, {"smiles": "O=c1[nH]cnc2c1c(-c1ccccc1)cn2-c1ccc(Br)cc1", "Potency": "inconclusive [inhibitor, single point]"}, {"smiles": "CCOC(=O)C1=C(C)NC(=O)CC1c1ccccc1OC", "note": "(stereo not drawn)", "activity change, negative = inhibition": "inconclusive: 15.3% [activator]"}, {"smiles": "O=C1CCc2cc(S(=O)(=O)N3CCN(c4cccc(C(F)(F)F)c4)CC3)ccc2N1", "activity change, negative = inhibition": "inactive: -4.15%"}, {"smiles": "COc1ccc(C2OC34CCCCC3C(C#N)(C#N)C2(C#N)C(=N)O4)cc1", "note": "(stereo not drawn)", "Potency": "inconclusive [activator, single point]"}, {"smiles": "O=C(NNc1nc2cc3c(cc2s1)OCCO3)c1ccc(F)cc1", "activity change, negative = inhibition": "inactive: -7.17%"}, {"smiles": "CC(NC(=O)CCC(=O)N1CCN(S(=O)(=O)c2ccc(Cl)cc2)CC1)c1ccccc1", "note": "(stereo not drawn)", "Potency": "inconclusive [inhibitor, single point]"}, {"smiles": "COc1ccc(-c2cc(=O)[nH]c(=S)[nH]2)cc1", "activity change, negative = inhibition": "inconclusive: 14.2% [activator]"}, {"smiles": "O=S(=O)(c1ccc(Br)cc1)N1CCCN(Cc2cccc(F)c2)CC1", "Potency": "inconclusive [inhibitor, single point]"}, {"smiles": "OCCN(C=NC1=NN(c2cccc(C(F)(F)F)c2)CC1)CCO", "Potency": "inconclusive [inhibitor, single point]"}, {"smiles": "COc1ccc2[nH]c(C(=O)Nc3ccccc3Cl)cc2c1", "activity change, negative = inhibition": "inactive: -17.6%"}, {"smiles": "O=S(=O)(NCCC1=CCCCC1)c1cccc(S(=O)(=O)N2CCOCC2)c1", "Potency": "inconclusive [inhibitor, single point]"}, {"smiles": "Cc1ccc(S(=O)(=O)N2CCN(C(=O)C3COc4ccccc4O3)CC2)cc1C", "note": "(stereo not drawn)", "Potency": "inconclusive [inhibitor, partial curve]"}, {"smiles": "CCCNC(=O)Cn1c(=O)/c(=C\\c2ccc(-c3ccc([N+](=O)[O-])cc3)o2)s/c1=C\\C(=O)C(C)(C)C", "activity change, negative = inhibition": "inactive: 2.27%"}, {"smiles": "CCc1ccc2nc(NC(=O)c3ccc4c(=O)[nH]c(CN5CCOCC5)nc4c3)sc2c1", "activity change, negative = inhibition": "inactive: -5.41%"}, {"smiles": "Cc1ccc(C(=O)Nc2cccc(N(C)S(C)(=O)=O)c2)cc1S(=O)(=O)Nc1ccccc1", "Potency": "inconclusive [inhibitor, single point]"}, {"smiles": "CCOP(=O)(OCC)c1nc(-c2cccc3ccccc23)oc1NCc1ccc(OC)cc1", "Potency": "inconclusive [activator, partial curve]"}, {"smiles": "Cc1ccc2nc(NC(=S)NC(=O)c3cccs3)sc2c1", "Potency": "inconclusive [inhibitor, single point]"}, {"smiles": "N#CC1=C(SCC(=O)NC23CC4CC(CC(C4)C2)C3)NC(=O)C(C#N)C12CCCCC2", "note": "(stereo not drawn)", "activity change, negative = inhibition": "inconclusive: -17.6% [inhibitor]"}, {"smiles": "COC(=O)c1ccc(NC(=O)CN(c2ccc(C)cc2)S(=O)(=O)c2c(C)nn(C)c2C)cc1", "activity change, negative = inhibition": "inconclusive: -15.7% [inhibitor]"}, {"smiles": "Cc1ccc(NC(=O)CCNS(=O)(=O)c2ccc3c(c2)c(=O)n(C)c(=O)n3C)cc1C", "Potency": "inconclusive [inhibitor, single point]"}, {"smiles": "Cc1c(C#N)c(N)nc2c3c(sc12)NC(=O)CC3c1ccccc1", "note": "(stereo not drawn)", "Potency": "inconclusive [activator, full curve]"}, {"smiles": "Cc1c(O)c(CN2CCCCC2)cc2c3c(c(=O)oc12)CCC3", "Potency": "inconclusive [activator, partial curve]"}, {"smiles": "O=C(Nc1nc(-c2cccc(Br)c2)cs1)Oc1ccccc1", "Potency": "inconclusive [inhibitor, single point]"}, {"smiles": "Cc1cc(C)c(N(C(=O)CN2C(=O)c3ccccc3S2(=O)=O)C(C(=O)NCC2CCCO2)c2ccc(F)cc2)c(C)c1", "note": "(stereo not drawn)", "Potency": "inconclusive [inhibitor, single point]"}, {"smiles": "CN(C)CCCNC(=O)/C=C/c1ccc(OCc2c(F)cccc2Cl)cc1", "activity change, negative = inhibition": "inconclusive: -15.4% [inhibitor]"}, {"smiles": "Cc1ccc2[nH]c(=O)c(C(c3nnnn3C(C)(C)C)N3CCN(C(=O)c4ccco4)CC3)cc2c1", "note": "(stereo not drawn)", "activity change, negative = inhibition": "inactive: 1.3%"}, {"smiles": "CCNc1nc(C)c2cc(Br)c(=O)n(CC)c2n1", "Potency": "inconclusive [activator, partial curve]"}, {"smiles": "C(=N\\Nc1nc2ccccc2[nH]1)/c1cccc2cccnc12", "activity change, negative = inhibition": "inactive: -12.8%"}, {"smiles": "Cc1cc(C)n(-c2ccc3cccc(NS(C)(=O)=O)c3n2)n1", "Potency": "inconclusive [inhibitor, single point]"}]}]}
